Results taken from patent publication US20260008835A1 (SHANGHAI REGENELEAD THERAPIES, published 2026).

T1: Human VEGF-A protein (human, UniProt P15692-4 27-191, limits assumed)
T1 sequence (looked up): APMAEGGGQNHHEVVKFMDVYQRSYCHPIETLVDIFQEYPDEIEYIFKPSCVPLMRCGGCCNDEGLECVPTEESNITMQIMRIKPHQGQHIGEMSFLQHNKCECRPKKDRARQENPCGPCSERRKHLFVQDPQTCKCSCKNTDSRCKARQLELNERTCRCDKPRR

B1: PR1167 (R1D2-R2D3-R2D2 (C162V)-R2D3 (N274F/S283T)-Fc) (Fc fusion)
chain: SDTGRPFVEMYSEIPEIIHMTEGRELVIPCRVTSPNITVTLKKFPLDTLIPDGKRIIWDSRKGFIISNATYKEIGLLTCEATVNGHLYKTNYLTHRQTNTIIDVVLSPSHGIELSVGEKLVLNCTARTELNVGIDFNWEYPSSKHQHKKLVNRDLKTQSGSEMKKFLSTLTIDGVTRSDQGLYTCAASSGLMTKKNSTFVRVHEKSPFIASVSDQHGVVYITENKNKTVVIPCLGSISNLNVSLVARYPEKRFVPDGNRISWDSKKGFTIPSYMISYAGMVFCEAKINDESYQSIMYIVVVVGYRIYDVVLSPSHGIELSVGEKLVLNCTARTELNVGIDFNWEYPSSKHQHKKLVFRDLKTQSGTEMKKFLSTLTIDGVTRSDQGLYTCAASSGLMTKKNSTFVRVHEK[human IgG1 Fc with changes not printed]
B2: PR1168 (R1D2-R2D3-R2D2(C162V/Y221S/R222K)-R2D3 (N274F)-Fc) (Fc fusion)
chain: SDTGRPFVEMYSEIPEIIHMTEGRELVIPCRVTSPNITVTLKKFPLDTLIPDGKRIIWDSRKGFIISNATYKEIGLLTCEATVNGHLYKTNYLTHRQTNTIIDVVLSPSHGIELSVGEKLVLNCTARTELNVGIDFNWEYPSSKHQHKKLVNRDLKTQSGSEMKKFLSTLTIDGVTRSDQGLYTCAASSGLMTKKNSTFVRVHEKSPFIASVSDQHGVVYITENKNKTVVIPCLGSISNLNVSLVARYPEKRFVPDGNRISWDSKKGFTIPSYMISYAGMVFCEAKINDESYQSIMYIVVVVGSKIYDVVLSPSHGIELSVGEKLVLNCTARTELNVGIDFNWEYPSSKHQHKKLVFRDLKTQSGSEMKKFLSTLTIDGVTRSDQGLYTCAASSGLMTKKNSTFVRVHEK[human IgG1 Fc with changes not printed]
B3: PR1169 (R1D2-R2D3-R2D2(C162V/Y221S/R222K)-R2D3 (S283T)-Fc) (Fc fusion)
chain: SDTGRPFVEMYSEIPEIIHMTEGRELVIPCRVTSPNITVTLKKFPLDTLIPDGKRIIWDSRKGFIISNATYKEIGLLTCEATVNGHLYKTNYLTHRQTNTIIDVVLSPSHGIELSVGEKLVLNCTARTELNVGIDFNWEYPSSKHQHKKLVNRDLKTQSGSEMKKFLSTLTIDGVTRSDQGLYTCAASSGLMTKKNSTFVRVHEKSPFIASVSDQHGVVYITENKNKTVVIPCLGSISNLNVSLVARYPEKRFVPDGNRISWDSKKGFTIPSYMISYAGMVFCEAKINDESYQSIMYIVVVVGSKIYDVVLSPSHGIELSVGEKLVLNCTARTELNVGIDFNWEYPSSKHQHKKLVNRDLKTQSGTEMKKFLSTLTIDGVTRSDQGLYTCAASSGLMTKKNSTFVRVHEK[human IgG1 Fc with changes not printed]
B4: PR1170 (R1D2-R2D3-R2D2(C162V/Y221S/R222K)-R2D3 (N274F/S283T)-Fc) (Fc fusion)
chain: SDTGRPFVEMYSEIPEIIHMTEGRELVIPCRVTSPNITVTLKKFPLDTLIPDGKRIIWDSRKGFIISNATYKEIGLLTCEATVNGHLYKTNYLTHRQTNTIIDVVLSPSHGIELSVGEKLVLNCTARTELNVGIDFNWEYPSSKHQHKKLVNRDLKTQSGSEMKKFLSTLTIDGVTRSDQGLYTCAASSGLMTKKNSTFVRVHEKSPFIASVSDQHGVVYITENKNKTVVIPCLGSISNLNVSLVARYPEKRFVPDGNRISWDSKKGFTIPSYMISYAGMVFCEAKINDESYQSIMYIVVVVGSKIYDVVLSPSHGIELSVGEKLVLNCTARTELNVGIDFNWEYPSSKHQHKKLVFRDLKTQSGTEMKKFLSTLTIDGVTRSDQGLYTCAASSGLMTKKNSTFVRVHEK[human IgG1 Fc with changes not printed]
B5: PR1171 (R1D2-R2D3-linker-R2D2 (C162V)-R2D3 (N274F/S283T)-Fc) (Fc fusion)
chain: SDTGRPFVEMYSEIPEIIHMTEGRELVIPCRVTSPNITVTLKKFPLDTLIPDGKRIIWDSRKGFIISNATYKEIGLLTCEATVNGHLYKTNYLTHRQTNTIIDVVLSPSHGIELSVGEKLVLNCTARTELNVGIDFNWEYPSSKHQHKKLVNRDLKTQSGSEMKKFLSTLTIDGVTRSDQGLYTCAASSGLMTKKNSTFVRVHEKGGGGSSPFIASVSDQHGVVYITENKNKTVVIPCLGSISNLNVSLVARYPEKRFVPDGNRISWDSKKGFTIPSYMISYAGMVFCEAKINDESYQSIMYIVVVVGYRIYDVVLSPSHGIELSVGEKLVLNCTARTELNVGIDFNWEYPSSKHQHKKLVFRDLKTQSGTEMKKFLSTLTIDGVTRSDQGLYTCAASSGLMTKKNSTFVRVHEK[human IgG1 Fc with changes not printed]
B6: PR1172 (R1D2-R2D3-linker-R2D2 (C162V/Y221S/R222K)-R2D3 (N274F)-Fc) (Fc fusion)
chain: SDTGRPFVEMYSEIPEIIHMTEGRELVIPCRVTSPNITVTLKKFPLDTLIPDGKRIIWDSRKGFIISNATYKEIGLLTCEATVNGHLYKTNYLTHRQTNTIIDVVLSPSHGIELSVGEKLVLNCTARTELNVGIDFNWEYPSSKHQHKKLVNRDLKTQSGSEMKKFLSTLTIDGVTRSDQGLYTCAASSGLMTKKNSTFVRVHEKGGGGSSPFIASVSDQHGVVYITENKNKTVVIPCLGSISNLNVSLVARYPEKRFVPDGNRISWDSKKGFTIPSYMISYAGMVFCEAKINDESYQSIMYIVVVVGSKIYDVVLSPSHGIELSVGEKLVLNCTARTELNVGIDFNWEYPSSKHQHKKLVFRDLKTQSGSEMKKFLSTLTIDGVTRSDQGLYTCAASSGLMTKKNSTFVRVHEK[human IgG1 Fc with changes not printed]
B7: PR1173 (R1D2-R2D3-linker-R2D2 (C162V/Y221S/R222K)-R2D3 (S283T)-Fc) (Fc fusion)
chain: SDTGRPFVEMYSEIPEIIHMTEGRELVIPCRVTSPNITVTLKKFPLDTLIPDGKRIIWDSRKGFIISNATYKEIGLLTCEATVNGHLYKTNYLTHRQTNTIIDVVLSPSHGIELSVGEKLVLNCTARTELNVGIDFNWEYPSSKHQHKKLVNRDLKTQSGSEMKKFLSTLTIDGVTRSDQGLYTCAASSGLMTKKNSTFVRVHEKGGGGSSPFIASVSDQHGVVYITENKNKTVVIPCLGSISNLNVSLVARYPEKRFVPDGNRISWDSKKGFTIPSYMISYAGMVFCEAKINDESYQSIMYIVVVVGSKIYDVVLSPSHGIELSVGEKLVLNCTARTELNVGIDFNWEYPSSKHQHKKLVNRDLKTQSGTEMKKFLSTLTIDGVTRSDQGLYTCAASSGLMTKKNSTFVRVHEK[human IgG1 Fc with changes not printed]
B8: PR1141 (R1D2-R2D3-linker-R2D2 (C162V)-R2D3 (N274F)-Fc) (Fc fusion)
chain: SDTGRPFVEMYSEIPEIIHMTEGRELVIPCRVTSPNITVTLKKFPLDTLIPDGKRIIWDSRKGFIISNATYKEIGLLTCEATVNGHLYKTNYLTHRQTNTIIDVVLSPSHGIELSVGEKLVLNCTARTELNVGIDFNWEYPSSKHQHKKLVNRDLKTQSGSEMKKFLSTLTIDGVTRSDQGLYTCAASSGLMTKKNSTFVRVHEKGGGGSSPFIASVSDQHGVVYITENKNKTVVIPCLGSISNLNVSLVARYPEKRFVPDGNRISWDSKKGFTIPSYMISYAGMVFCEAKINDESYQSIMYIVVVVGYRIYDVVLSPSHGIELSVGEKLVLNCTARTELNVGIDFNWEYPSSKHQHKKLVFRDLKTQSGSEMKKFLSTLTIDGVTRSDQGLYTCAASSGLMTKKNSTFVRVHEK[human IgG1 Fc with changes not printed]
B9: PR1142 (R1D2-R2D3-linker-R2D2 (C162V)-R2D3 (N274I)-Fc) (Fc fusion)
chain: SDTGRPFVEMYSEIPEIIHMTEGRELVIPCRVTSPNITVTLKKFPLDTLIPDGKRIIWDSRKGFIISNATYKEIGLLTCEATVNGHLYKTNYLTHRQTNTIIDVVLSPSHGIELSVGEKLVLNCTARTELNVGIDFNWEYPSSKHQHKKLVNRDLKTQSGSEMKKFLSTLTIDGVTRSDQGLYTCAASSGLMTKKNSTFVRVHEKGGGGSSPFIASVSDQHGVVYITENKNKTVVIPCLGSISNLNVSLVARYPEKRFVPDGNRISWDSKKGFTIPSYMISYAGMVFCEAKINDESYQSIMYIVVVVGYRIYDVVLSPSHGIELSVGEKLVLNCTARTELNVGIDFNWEYPSSKHQHKKLVIRDLKTQSGSEMKKFLSTLTIDGVTRSDQGLYTCAASSGLMTKKNSTFVRVHEK[human IgG1 Fc with changes not printed]
B10: PR1143 (R1D2-R2D3-linker-R2D2 (C162V)-R2D3 (R275L)-Fc) (Fc fusion)
chain: SDTGRPFVEMYSEIPEIIHMTEGRELVIPCRVTSPNITVTLKKFPLDTLIPDGKRIIWDSRKGFIISNATYKEIGLLTCEATVNGHLYKTNYLTHRQTNTIIDVVLSPSHGIELSVGEKLVLNCTARTELNVGIDFNWEYPSSKHQHKKLVNRDLKTQSGSEMKKFLSTLTIDGVTRSDQGLYTCAASSGLMTKKNSTFVRVHEKGGGGSSPFIASVSDQHGVVYITENKNKTVVIPCLGSISNLNVSLVARYPEKRFVPDGNRISWDSKKGFTIPSYMISYAGMVFCEAKINDESYQSIMYIVVVVGYRIYDVVLSPSHGIELSVGEKLVLNCTARTELNVGIDFNWEYPSSKHQHKKLVNLDLKTQSGSEMKKFLSTLTIDGVTRSDQGLYTCAASSGLMTKKNSTFVRVHEK[human IgG1 Fc with changes not printed]

target: T1, Human VEGF-A protein; experiment: cell-based or functional assay

**Q.** B1 was tested. Which “VEGF-A IC50; VEGF-A-induced NFAT-RE-luc2P/KDR HEK293 reporter gene expression” value did it give?
**A.** 1.1 nM

**Q.** Which “VEGF-A IC50; VEGF-A-induced NFAT-RE-luc2P/KDR HEK293 reporter gene expression” value does the source give for B2 here?
**A.** 1.15 nM

**Q.** With B3 as the binder, how does the “VEGF-A IC50; VEGF-A-induced NFAT-RE-luc2P/KDR HEK293 reporter gene expression” value read?
**A.** 0.9 nM

**Q.** Which “VEGF-A IC50; VEGF-A-induced NFAT-RE-luc2P/KDR HEK293 reporter gene expression” value does the source give for B4 here?
**A.** 0.89 nM

**Q.** For B5, which “VEGF-A IC50; VEGF-A-induced NFAT-RE-luc2P/KDR HEK293 reporter gene expression” value is on record?
**A.** 1.09 nM

**Q.** Which “VEGF-A IC50; VEGF-A-induced NFAT-RE-luc2P/KDR HEK293 reporter gene expression” value does the source give for B6 here?
**A.** 0.92 nM

**Q.** With B7 as the binder, how does the “VEGF-A IC50; VEGF-A-induced NFAT-RE-luc2P/KDR HEK293 reporter gene expression” value read?
**A.** 1.08 nM

target: T1, Human VEGF-A protein; experiment: cell-based or functional assay; remark: another data set of the same source

**Q.** B8 was tested. Which “VEGF-A IC50; VEGF-A-induced NFAT-RE-luc2P/KDR HEK293 reporter gene expression” value did it give?
**A.** 1.14 nM

**Q.** B9 was tested. Which “VEGF-A IC50; VEGF-A-induced NFAT-RE-luc2P/KDR HEK293 reporter gene expression” value did it give?
**A.** 0.99 nM

**Q.** Which “VEGF-A IC50; VEGF-A-induced NFAT-RE-luc2P/KDR HEK293 reporter gene expression” value does the source give for B10 here?
**A.** 0.84 nM
